Measured values: the supplement of paper PMC8728848
The other results are listed elsewhere or left out.

Assays:
Assay in all cases: glycan array binding signal (z-score within array); higher = stronger binding
Conditions in all cases: glycan notation: IUPAC condensed, linker removed
[1] = biological target: Neu5Ac(a2-3)Gal(b1-3)GlcNAc(b1-2)Man
Outline: (§1)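 The binding signal is a Z-score computed within each array and averaged over linkers. Arrays of the same protein sequence at different concentrations or buffers were also averaged together. Data originate from 3228 arrays in the Consortium for Functional Glycomics database, kept only where the protein sequence was available.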

[2] = biological target: Neu5Ac(a2-3)Gal(b1-3)GlcNAc(b1-2)Man(a1-3)[GlcNAc(b1-4)][Neu5Ac(a2-3)Gal(b1-3)GlcNAc(b1-2)Man(a1-6)]Man(b1-4)GlcNAc(b1-4)GlcNAc
Outline: as §1

[3] = biological target: Neu5Ac(a2-3)Gal(b1-3)GlcNAc(b1-2)Man(a1-3)[Neu5Ac(a2-3)Gal(b1-3)GlcNAc(b1-2)Man(a1-6)]Man(b1-4)GlcNAc(b1-4)GlcNAc
Outline: as §1

[4] = biological target: Neu5Ac(a2-3)Gal(b1-3)GlcNAc(b1-2)[Neu5Ac(a2-3)Gal(b1-3)GlcNAc(b1-4)]Man(a1-6)[Neu5Ac(a2-3)Gal(b1-3)GlcNAc(b1-2)Man(a1-3)]Man(b1-4)GlcNAc(b1-4)GlcNAc
Outline: as §1

[5] = biological target: Neu5Ac(a2-3)Gal(b1-3)GlcNAc(b1-3)Gal(b1-3)GlcNAc
Outline: as §1

[6] = biological target: Neu5Ac(a2-3)Gal(b1-3)GlcNAc(b1-3)Gal(b1-4)GlcNAc
Outline: as §1

[7] = biological target: Neu5Ac(a2-3)Gal(b1-3)GlcNAc(b1-3)GalNAc
Outline: as §1

[8] = biological target: Neu5Ac(a2-3)Gal(b1-3)GlcNAc(b1-6)GalNAc
Outline: as §1

[9] = biological target: Neu5Ac(a2-3)Gal(b1-3)GlcNAc6S
Outline: as §1

[10] = biological target: Neu5Ac(a2-3)Gal(b1-3)[Fuc(a1-4)]GlcNAc
Outline: as §1

[11] = biological target: Neu5Ac(a2-3)Gal(b1-3)[Fuc(a1-4)]GlcNAc(b1-3)Gal(b1-3)[Fuc(a1-4)]GlcNAc
Outline: as §1

[12] = biological target: Neu5Ac(a2-3)Gal(b1-3)[Fuc(a1-4)]GlcNAc(b1-3)Gal(b1-4)[Fuc(a1-3)]GlcNAc
Outline: as §1

[13] = biological target: Neu5Ac(a2-3)Gal(b1-3)[GlcNAc(b1-6)]GalNAc
Outline: as §1

[14] = biological target: Neu5Ac(a2-3)Gal(b1-3)[Neu5Ac(a2-6)]GalNAc
Outline: as §1

[15] = biological target: Neu5Ac(a2-3)Gal(b1-3)[Neu5Ac(a2-6)]GlcNAc(b1-3)[Fuc(a1-3)[Gal(b1-4)]GlcNAc(b1-6)]Gal(b1-4)Glc
Outline: as §1

[16] = biological target: Neu5Ac(a2-3)Gal(b1-3)]Neu5Ac(a2-3)Gal(b1-4)]GlcNAc
Outline: as §1

Neu5Ac(a2-3)Gal(b1-4)Glc = biological target: Neu5Ac(a2-3)Gal(b1-4)Glc
Outline: as §1

[17] = biological target: Neu5Ac(a2-3)Gal(b1-4)GlcNAc
Outline: as §1

[18] = biological target: Neu5Ac(a2-3)Gal(b1-4)GlcNAc(b1-2)Man
Outline: as §1

[19] = biological target: Neu5Ac(a2-3)Gal(b1-4)GlcNAc(b1-2)Man(a1-3)[GlcNAc(b1-4)][Neu5Ac(a2-3)Gal(b1-4)GlcNAc(b1-2)Man(a1-6)]Man(b1-4)GlcNAc(b1-4)GlcNAc
Outline: as §1

[20] = biological target: Neu5Ac(a2-3)Gal(b1-4)GlcNAc(b1-2)Man(a1-3)[Neu5Ac(a2-3)Gal(b1-4)GlcNAc(b1-2)Man(a1-6)]Man(b1-4)GlcNAc(b1-4)GlcNAc
Outline: as §1

[21] = biological target: Neu5Ac(a2-3)Gal(b1-4)GlcNAc(b1-2)Man(a1-3)[Neu5Ac(a2-3)Gal(b1-4)GlcNAc(b1-2)Man(a1-6)]Man(b1-4)GlcNAc(b1-4)[Fuc(a1-6)]GlcNAc
Outline: as §1

[22] = biological target: Neu5Ac(a2-3)Gal(b1-4)GlcNAc(b1-2)Man(a1-3)[Neu5Ac(a2-6)Gal(b1-4)GlcNAc(b1-2)Man(a1-6)]Man(b1-4)GlcNAc(b1-4)GlcNAc
Outline: as §1

[23] = biological target: Neu5Ac(a2-3)Gal(b1-4)GlcNAc(b1-2)[Neu5Ac(a2-3)Gal(b1-4)GlcNAc(b1-4)]Man(a1-3)[GlcNAc(b1-4)][Neu5Ac(a2-3)Gal(b1-4)GlcNAc(b1-2)[Neu5Ac(a2-3)Gal(b1-4)GlcNAc(b1-6)]Man(a1-6)]Man(b1-4)GlcNAc(b1-4)GlcNAc
Outline: as §1

[24] = biological target: Neu5Ac(a2-3)Gal(b1-4)GlcNAc(b1-2)[Neu5Ac(a2-3)Gal(b1-4)GlcNAc(b1-4)]Man(a1-3)[GlcNAc(b1-4)][Neu5Ac(a2-3)Gal(b1-4)GlcNAc(b1-4)Man(a1-6)]Man(b1-4)GlcNAc(b1-4)GlcNAc
Outline: as §1

[25] = biological target: Neu5Ac(a2-3)Gal(b1-4)GlcNAc(b1-2)[Neu5Ac(a2-3)Gal(b1-4)GlcNAc(b1-6)]Man(a1-6)[Neu5Ac(a2-3)Gal(b1-4)GlcNAc(b1-2)Man(a1-3)][GlcNAc(b1-4)]Man(b1-4)GlcNAc(b1-4)GlcNAc
Outline: as §1

[26] = biological target: Neu5Ac(a2-3)Gal(b1-4)GlcNAc(b1-3)Gal
Outline: as §1

[27] = biological target: Neu5Ac(a2-3)Gal(b1-4)GlcNAc(b1-3)Gal(b1-3)GlcNAc
Outline: as §1

[28] = biological target: Neu5Ac(a2-3)Gal(b1-4)GlcNAc(b1-3)Gal(b1-4)GlcNAc
Outline: as §1

[29] = biological target: Neu5Ac(a2-3)Gal(b1-4)GlcNAc(b1-3)Gal(b1-4)GlcNAc(b1-2)Man(a1-3)[Neu5Ac(a2-3)Gal(b1-4)GlcNAc(b1-3)Gal(b1-4)GlcNAc(b1-2)Man(a1-6)]Man(b1-4)GlcNAc(b1-4)GlcNAc
Outline: as §1

[30] = biological target: Neu5Ac(a2-3)Gal(b1-4)GlcNAc(b1-3)Gal(b1-4)GlcNAc(b1-3)Gal(b1-4)GlcNAc
Outline: as §1

[31] = biological target: Neu5Ac(a2-3)Gal(b1-4)GlcNAc(b1-3)Gal(b1-4)GlcNAc(b1-3)Gal(b1-4)GlcNAc(b1-2)Man(a1-3)[Neu5Ac(a2-3)Gal(b1-4)GlcNAc(b1-3)Gal(b1-4)GlcNAc(b1-3)Gal(b1-4)GlcNAc(b1-2)Man(a1-6)]GalNAc
Outline: as §1

[32] = biological target: Neu5Ac(a2-3)Gal(b1-4)GlcNAc(b1-3)Gal(b1-4)GlcNAc(b1-3)GalNAc
Outline: as §1

[33] = biological target: Neu5Ac(a2-3)Gal(b1-4)GlcNAc(b1-3)Gal(b1-4)GlcNAc(b1-3)[Neu5Ac(a2-3)Gal(b1-4)GlcNAc(b1-3)Gal(b1-4)GlcNAc(b1-6)]GalNAc
Outline: as §1

[34] = biological target: Neu5Ac(a2-3)Gal(b1-4)GlcNAc(b1-3)Gal(b1-4)GlcNAc(b1-6)[Gal(b1-3)]GalNAc
Outline: as §1

[35] = biological target: Neu5Ac(a2-3)Gal(b1-4)GlcNAc(b1-3)Gal(b1-4)[Fuc(a1-3)]GlcNAc
Outline: as §1

[36] = biological target: Neu5Ac(a2-3)Gal(b1-4)GlcNAc(b1-3)GalNAc
Outline: as §1

[37] = biological target: Neu5Ac(a2-3)Gal(b1-4)GlcNAc(b1-3)[Neu5Ac(a2-3)Gal(b1-4)GlcNAc(b1-6)]GalNAc
Outline: as §1

B1: Clec49 (Caenorhabditis elegans) (protein)
chain: MTRLTLLLFGLLGAATAQTCNTGGIYNEQFNRCYQYFTAPAQFSFAEQQCNLLGGHLASVQNGQENALLQSNAANSFKRSNYSDYWIGATDLETSGTWKWTDPSVTFDYSNWQLGEPQSGSDCAIQDKGDGTWSAIGCTSYRPYVCVTPVIMTATCPPITTPIPTTCPTPAPCPIKQCVPSCDQGWTYFSPTDFCYRVYHGEKFNDAEASCVLLGGHLASIHSLTENTFVNNIASCGIKEGKYEHLAWIGMRKVGQDWVWTDGTPSDYFNWAPKQPDNPKKELCVQTAPDLSHDKWYENWNNLECNEVMRAYICKKASIHN
glycan array binding signal (z-score) [1]: -0.287 | glycan array binding signal (z-score) [2]: -0.415 | glycan array binding signal (z-score) [3]: 0.787 | glycan array binding signal (z-score) [4]: 3.69 | glycan array binding signal (z-score) [5]: -1.14 | glycan array binding signal (z-score) [6]: -0.518 | glycan array binding signal (z-score) [7]: -0.541 | glycan array binding signal (z-score) [8]: -0.227 | glycan array binding signal (z-score) [9]: -0.159 | glycan array binding signal (z-score) [10]: -0.716 | glycan array binding signal (z-score) [11]: -0.342 | glycan array binding signal (z-score) [12]: 1.08 | glycan array binding signal (z-score) [13]: -0.809 | glycan array binding signal (z-score) [14]: 0.05 | glycan array binding signal (z-score) [15]: -0.325 | glycan array binding signal (z-score) [16]: -0.673 | glycan array binding signal (z-score) (Neu5Ac(a2-3)Gal(b1-4)Glc): -0.49 | glycan array binding signal (z-score) [17]: 0.054 | glycan array binding signal (z-score) [18]: 0.346 | glycan array binding signal (z-score) [19]: -0.138 | glycan array binding signal (z-score) [20]: -0.055 | glycan array binding signal (z-score) [21]: -0.426 | glycan array binding signal (z-score) [22]: -0.439 | glycan array binding signal (z-score) [23]: -0.218 | glycan array binding signal (z-score) [24]: 0.389 | glycan array binding signal (z-score) [25]: 0.886 | glycan array binding signal (z-score) [26]: -0.364 | glycan array binding signal (z-score) [27]: -0.409 | glycan array binding signal (z-score) [28]: -0.208 | glycan array binding signal (z-score) [29]: 2.19 | glycan array binding signal (z-score) [30]: -0.309 | glycan array binding signal (z-score) [31]: 5.23 | glycan array binding signal (z-score) [32]: -0.065 | glycan array binding signal (z-score) [33]: 0.317 | glycan array binding signal (z-score) [34]: -0.585 | glycan array binding signal (z-score) [35]: -0.36 | glycan array binding signal (z-score) [36]: 0.315 | glycan array binding signal (z-score) [37]: 0.343
